# According to PubChem BioAssay AID493208 (National Center for Advancing Translational Sciences (NCATS), 2011):
# The whole screen tested about 44,000 compounds, of which about 340 (0.77%) were called active. Not shown: some 5% with an inconclusive outcome. Calls follow the shape of the dose curve; as a rule, active = well fitted inhibition curve with a large enough effect; inconclusive = small, poorly fitted or top-dose-only effect; inactive = flat fitted curve, though single readings scatter. Some of the results follow.
# Experiment: Acumen qHTS Assay for Inhibitors of the mTORC1 Signaling Pathway in MEF (Tsc2-/-, p53-/-) Cells: Sytravon; also: nearly all actives have a fitted effect of over 50% in size;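 as to activity change, negative = inhibition: plate controls were DMSO for no effect and rapamycin for full effect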
# Conditions: phospho-rpS6 immunofluorescence/PI, 24 h; series mostly up to 38.3 µM; activity change, negative = inhibition: at the top concentration
# Outline: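 Tsc2-/-, p53-/- mouse embryonic fibroblasts (empty-vector line) exposed to compound 24 hrs at 37 C, fixed, immunostained for phospho-rpS6 and counterstained with propidium iodide. Acumen laser scanning gives % positive cells from Alexa 488/PI ratio, thresholded using 7.5 nM rapamycin; PI count gives viability.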
# Potency is read from the fitted curve at half-maximal effect.
Structure (SMILES),"activity change, negative = inhibition",Potency
Cc1ccc(C)c(N2CCN(C3=C(c4ccccc4)C(=O)c4ccccc43)CC2)c1,inactive: -20.4%,–
CCN1CCN(c2c(S(=O)(=O)c3ccc(C)c(C)c3)cnc3ccc(F)cc23)CC1,inactive: -10.2%,–
O=c1c2cnn(-c3ccc(Cl)cc3)c2ncn1Cc1cccc(C(F)(F)F)c1,inactive: -0.256%,–
COc1ccc(NC(=O)CSc2cc(-c3ccccc3)nc(C)n2)cc1,inactive: -13%,–
Cc1nn(CC(=O)Nc2ccccc2F)c(=O)c2c(C)n(-c3ccc(Cl)cc3)nc12,inactive: -10.5%,–
CCS(=O)(=O)c1ncc(N(Cc2ccc(F)cc2)Cc2ccco2)c(C(=O)Nc2cc(C)ccc2C)n1,inactive: 0.885%,–
CCOC(=O)C1CCN(C(=O)CN2c3ccc(CC)cc3-c3ccccc3S2(=O)=O)CC1,inactive: -0.818%,–
CCC(=O)Nc1ccc2nc(SCCOc3ccc(C)cc3)sc2c1,inactive: -6.87%,–
CCCN(CCC)C(=O)Cn1c(=O)n(-c2ccc(OC)cc2)c(=O)c2ccc(C(=O)NCc3ccc(C)cc3)cc21,inactive: 1.96%,–
Cc1ccc(-n2c(SCC(=O)Nc3cccc(C)c3)nc3c(oc4ccccc43)c2=O)cc1,inactive: 1%,–
CCOC(=O)C1CCCN(C(=O)c2ccc(-n3ccc4ccccc43)s2)C1 (configuration not stated),inactive: -10.8%,–
COc1cccc(-c2ccc3c(N)c(C(=O)Nc4cc(F)ccc4F)sc3n2)c1,inactive: -11.3%,–
Cc1cccn2c(=O)c3cc(C(=O)NCc4cccnc4)c(=N)n(CCCO)c3nc12,inactive: -9.73%,–
CC(C)(C)c1ccc(C(=O)NC2(C(F)(F)F)C(=O)Nc3c2c(=O)[nH]c(=O)n3-c2ccccc2)cc1 (configuration not stated),inactive: 2.63%,–
O=C(NCc1ccccc1)c1nc(S(=O)(=O)Cc2ccccc2)ncc1Cl,–,active: 16.5 µM
CN1CCc2nc3sc(C(=O)Nc4ccccc4OC(F)(F)F)c(N)c3cc2C1,inactive: -9.81%,–
Cc1ccc(Cn2c(SCC(=O)C(C)(C)C)nc3ccsc3c2=O)cc1,inactive: -7.9%,–
CC1=Nc2cc(C(=O)NCCc3ccccc3)ccc2Sc2c(C)ccc(C)c21,inactive: -12.7%,–
COc1ccc(NC(=O)Cn2c(=O)n(-c3ccc(C)cc3)c(=O)c3c2cnn3C)cc1,inactive: -14.6%,–

Structure (SMILES),"activity change, negative = inhibition",Potency
O=C(Nc1ccc2nc(SCC(=O)N3CCCC3)sc2c1)c1cccc(Cl)c1,inactive: -9.88%,–
CCOC(=O)c1c(C)[nH]c(C)c1S(=O)(=O)N(C)CC(=O)Nc1ccc(C)c(N(C)C)c1,inactive: -2.12%,–
CC(C)CCNC(=O)C1CCN(c2nc3ccc(Cl)cc3[nH]2)CC1,inactive: 12.8%,–
COc1ccc(C)cc1NC(=O)c1ccc(=O)n(Cc2ccccc2)c1,inactive: -0.878%,–
COC(=O)c1cc2occc2n1Cc1nc(-c2cccc(Cl)c2)oc1C,inactive: 1.05%,–
COc1ccc(OC)c(CCNC(=O)c2cnn(-c3ccccc3Cl)c2C2CCN(C(=O)OC(C)(C)C)CC2)c1,inactive: 2.24%,–
COc1ccc(Nc2nc3c(S(=O)(=O)c4ccccc4)nnn3c3ccsc23)cc1OC,inactive: -5.41%,–
Cc1cccc(C(=O)Nc2c(C(=O)NCc3ccc(Cl)cc3)sc3nc(C)cc(C)c23)c1,–,active: 13.1 µM
CC(=O)Nc1ccc(S(=O)(=O)Nc2cc(-c3cn4ccccc4n3)ccc2C)cc1,inactive: 0.208%,–
COc1ccc(CCNC(=O)c2cn(C)c3ccc(S(=O)(=O)N(C)C4CCCCC4)cc3c2=O)cc1OC,inactive: 4.19%,–
COc1ccc(-c2nsc(NC(=O)C(C)Oc3ccc(Cl)c(C)c3)n2)cc1 (configuration not stated),inactive: -0.0543%,–
COc1cccc(-n2c(=O)c3c(C)c(C)sc3n(CC(=O)NCc3ccccc3)c2=O)c1,inactive: 4.09%,–
COc1ccccc1NC(=O)C1=C(C)Nc2nnnn2C1c1cc(Br)c(O)c(OC)c1 (configuration not stated),inactive: 0%,–
Cc1ccc(C)c(Cn2c(=O)cc(C)c3c(C)nn(-c4cccc(F)c4)c32)c1,inactive: -2.76%,–
COc1ccc(NC(=O)c2cnc(Nc3ccc(C)c(Cl)c3)c3ccccc23)cc1OC,inactive: 0.723%,–
CCCN(CCC)CCNC(=O)c1ccc2c(c1)NC(=O)C(CS(=O)(=O)Cc1cccc(Br)c1)N2 (configuration not stated),inactive: 0.906%,–
Cc1sc2ncn(CC(=O)N3CCN(c4cccc(Cl)c4)CC3)c(=O)c2c1S(=O)(=O)N1CCN(c2ncccn2)CC1,inactive: -20.9%,–
COc1ccccc1N1CCN(S(=O)(=O)CCNC(=O)COc2ccc(C(C)C)cc2)CC1,inactive: -0.195%,–
CCOc1ccccc1N1CC(c2nc3ccccc3n2Cc2c(C)cc(C)cc2C)CC1=O (configuration not stated),inactive: -1.85%,–

Structure (SMILES),"activity change, negative = inhibition",Potency
COc1ccc(NC(=O)c2ccc3c(SCC(=O)O)c4c(nc3c2)CCC4)c(OC)c1,inactive: -1.56%,–
COc1ccc(-c2nc(C)c(CCNC(=O)C(=O)Nc3cc(C)cc(C)c3)s2)cc1OC,inactive: -0.717%,–
COc1ccc(-c2nc(SCc3cc(=O)c4cc(C)ccc4[nH]3)n[nH]2)cc1,inactive: -1.64%,–
CC(=O)N1c2ccc(S(=O)(=O)NCC3CCC(C(=O)Nc4cccc(C)c4C)CC3)cc2CC1C (configuration not stated),inactive: -18.8%,–
CCOCCCNC(=O)C(c1ccc(OC)cc1)N(Cc1ccc2c(c1)OCO2)C(=O)c1ccccc1O (configuration not stated),inactive: -14.5%,–
Cc1ccc(NC(=O)Cn2nc(C)n3cccc3c2=O)c(C)c1,inactive: -2.74%,–
COc1ccc(N2CC(C(=O)NCc3nnnn3-c3ccc(C)c(C)c3)CC2=O)cc1 (configuration not stated),inactive: 2.93%,–
COc1ccccc1NC(=O)Cn1c(=O)c(CNc2ccc(C)cc2)cc2cc3c(cc21)OCCO3,inactive: -10.6%,–
Cc1cccc(N2C(=O)CSC23C(=O)N(CC(=O)NCc2ccccc2Cl)c2ccccc23)c1 (configuration not stated),inactive: -0.371%,–
COc1ccc(CCNC(=O)C(=O)NCC(c2ccco2)S(=O)(=O)c2ccccc2)cc1 (configuration not stated),inactive: -8.46%,–
O=C(Cn1c(SCCOc2ccc(Cl)cc2)nc2ccccc21)N1CCCCC1,inactive: -0.854%,–
COc1ccc(-c2nnc3n2N(C(C)=O)C(c2ccc(Cl)c(Cl)c2)=C(C(C)=O)S3)cc1,inactive: -0.985%,–
COc1ccc2cc3cc(C(=O)N4CCN(c5ccccc5F)CC4)oc3nc2c1,inactive: 1.11%,–
O=c1[nH]c(=O)n(C2CCCCC2)c(O)c1C1=Nc2ccccc2SC(c2ccc(Cl)cc2)C1 (configuration not stated),inactive: -1.29%,–
CCCOc1ccc(C2CC(=O)Nc3c2c(C)nn3-c2nncc(-c3cccc(OC)c3)n2)cc1OC (configuration not stated),inactive: -2.87%,–
Cc1ccc(NC(=O)Nc2sc3nc4n(c(=O)c3c2C)CCC(C)CC4)c(Cl)c1 (configuration not stated),inactive: -5.01%,–
Cc1cccc(NC(=O)c2ccc3c(c2)CCN3S(=O)(=O)c2ccccc2)c1C,inactive: -4.06%,–
COc1cccc(OC)c1C(=O)Nc1nc2c(s1)CCc1ccccc1-2,inactive: 8.24%,–
Cc1nc2c(c(C)c1CCC(=O)NCc1ccc(Cl)cc1)c(=O)n(C)c(=O)n2C,inactive: -12.8%,–
